Assay results reported in PMC9237684.
These are yes or no findings as the source states them, for the method shown. Binding seen in cells or lysates may run through a third protein. Some results given as binding are weak or reduced against the parent protein; the word gives no strength. For some assays here: Tags and fused reporters may be left off the sequences shown.

Sequences of proteins named here, by UniProt entry; tags and fusion partners are left off.
UniProt P93025: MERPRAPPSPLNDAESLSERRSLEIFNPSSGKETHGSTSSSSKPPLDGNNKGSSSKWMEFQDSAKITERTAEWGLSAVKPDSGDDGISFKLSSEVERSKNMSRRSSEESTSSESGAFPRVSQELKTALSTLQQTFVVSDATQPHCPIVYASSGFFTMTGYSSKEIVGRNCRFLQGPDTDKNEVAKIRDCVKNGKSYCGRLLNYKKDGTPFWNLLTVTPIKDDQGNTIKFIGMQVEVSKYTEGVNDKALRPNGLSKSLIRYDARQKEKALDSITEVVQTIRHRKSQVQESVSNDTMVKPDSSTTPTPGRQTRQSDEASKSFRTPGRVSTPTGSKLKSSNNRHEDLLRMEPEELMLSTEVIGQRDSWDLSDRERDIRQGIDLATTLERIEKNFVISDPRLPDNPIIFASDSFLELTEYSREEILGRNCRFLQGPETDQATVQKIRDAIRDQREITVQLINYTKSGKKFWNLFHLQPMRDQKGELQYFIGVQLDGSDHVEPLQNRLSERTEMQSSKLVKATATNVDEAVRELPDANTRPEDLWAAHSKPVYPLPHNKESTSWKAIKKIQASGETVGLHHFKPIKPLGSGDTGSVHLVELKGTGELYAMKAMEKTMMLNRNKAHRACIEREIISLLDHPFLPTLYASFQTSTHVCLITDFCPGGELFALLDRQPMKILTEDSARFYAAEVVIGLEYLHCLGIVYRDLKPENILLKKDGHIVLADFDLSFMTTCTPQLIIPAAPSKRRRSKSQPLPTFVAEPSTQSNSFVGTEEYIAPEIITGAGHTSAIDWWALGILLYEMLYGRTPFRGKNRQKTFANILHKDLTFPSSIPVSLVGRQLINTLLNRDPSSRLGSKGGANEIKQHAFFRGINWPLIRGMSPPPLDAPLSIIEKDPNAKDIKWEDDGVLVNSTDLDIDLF
UniProt Q01525: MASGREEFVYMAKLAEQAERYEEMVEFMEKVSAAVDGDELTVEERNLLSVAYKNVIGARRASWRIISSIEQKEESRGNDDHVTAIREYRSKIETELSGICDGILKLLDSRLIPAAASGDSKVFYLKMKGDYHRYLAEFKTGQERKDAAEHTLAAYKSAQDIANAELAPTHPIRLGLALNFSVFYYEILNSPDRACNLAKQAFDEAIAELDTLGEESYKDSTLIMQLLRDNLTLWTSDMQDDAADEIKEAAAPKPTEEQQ
UniProt P48349: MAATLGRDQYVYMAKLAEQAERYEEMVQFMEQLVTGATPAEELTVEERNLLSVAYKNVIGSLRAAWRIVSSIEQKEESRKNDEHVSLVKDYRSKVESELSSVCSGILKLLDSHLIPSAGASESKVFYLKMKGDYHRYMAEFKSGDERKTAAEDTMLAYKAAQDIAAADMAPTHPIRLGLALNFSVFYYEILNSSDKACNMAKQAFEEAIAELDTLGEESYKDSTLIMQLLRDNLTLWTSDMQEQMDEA
UniProt P48348: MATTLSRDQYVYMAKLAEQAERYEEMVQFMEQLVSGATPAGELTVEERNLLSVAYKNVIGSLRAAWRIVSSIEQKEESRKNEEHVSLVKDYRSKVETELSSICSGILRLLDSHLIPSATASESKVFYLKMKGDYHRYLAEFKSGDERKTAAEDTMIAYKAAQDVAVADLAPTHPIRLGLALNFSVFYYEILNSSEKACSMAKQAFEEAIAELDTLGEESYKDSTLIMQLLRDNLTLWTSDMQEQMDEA
UniProt P42643: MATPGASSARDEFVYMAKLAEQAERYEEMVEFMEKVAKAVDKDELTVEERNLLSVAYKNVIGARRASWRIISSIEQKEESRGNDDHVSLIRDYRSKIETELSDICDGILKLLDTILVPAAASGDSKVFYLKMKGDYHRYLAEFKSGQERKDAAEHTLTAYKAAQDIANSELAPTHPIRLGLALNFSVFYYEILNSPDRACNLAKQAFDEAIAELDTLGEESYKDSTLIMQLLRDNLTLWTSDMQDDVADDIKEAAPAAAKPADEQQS

How the values were obtained:
Assay in all cases: co-IP; N. benthamiana leaves transiently co-expressing the transgenes (35S promoter), 48 h postinfiltration, no crosslinking; YFP fusion held on GFP-Trap agarose; where noted leaves given 10 min high blue light (~50 umol m^-2 s^-1) or darkness before extraction
[1] = molecular target: T1, N-terminally YFP-tagged KAC1 (YFP:KAC1) (Arabidopsis thaliana) (UniProt Q9LX99)
T1 sequence: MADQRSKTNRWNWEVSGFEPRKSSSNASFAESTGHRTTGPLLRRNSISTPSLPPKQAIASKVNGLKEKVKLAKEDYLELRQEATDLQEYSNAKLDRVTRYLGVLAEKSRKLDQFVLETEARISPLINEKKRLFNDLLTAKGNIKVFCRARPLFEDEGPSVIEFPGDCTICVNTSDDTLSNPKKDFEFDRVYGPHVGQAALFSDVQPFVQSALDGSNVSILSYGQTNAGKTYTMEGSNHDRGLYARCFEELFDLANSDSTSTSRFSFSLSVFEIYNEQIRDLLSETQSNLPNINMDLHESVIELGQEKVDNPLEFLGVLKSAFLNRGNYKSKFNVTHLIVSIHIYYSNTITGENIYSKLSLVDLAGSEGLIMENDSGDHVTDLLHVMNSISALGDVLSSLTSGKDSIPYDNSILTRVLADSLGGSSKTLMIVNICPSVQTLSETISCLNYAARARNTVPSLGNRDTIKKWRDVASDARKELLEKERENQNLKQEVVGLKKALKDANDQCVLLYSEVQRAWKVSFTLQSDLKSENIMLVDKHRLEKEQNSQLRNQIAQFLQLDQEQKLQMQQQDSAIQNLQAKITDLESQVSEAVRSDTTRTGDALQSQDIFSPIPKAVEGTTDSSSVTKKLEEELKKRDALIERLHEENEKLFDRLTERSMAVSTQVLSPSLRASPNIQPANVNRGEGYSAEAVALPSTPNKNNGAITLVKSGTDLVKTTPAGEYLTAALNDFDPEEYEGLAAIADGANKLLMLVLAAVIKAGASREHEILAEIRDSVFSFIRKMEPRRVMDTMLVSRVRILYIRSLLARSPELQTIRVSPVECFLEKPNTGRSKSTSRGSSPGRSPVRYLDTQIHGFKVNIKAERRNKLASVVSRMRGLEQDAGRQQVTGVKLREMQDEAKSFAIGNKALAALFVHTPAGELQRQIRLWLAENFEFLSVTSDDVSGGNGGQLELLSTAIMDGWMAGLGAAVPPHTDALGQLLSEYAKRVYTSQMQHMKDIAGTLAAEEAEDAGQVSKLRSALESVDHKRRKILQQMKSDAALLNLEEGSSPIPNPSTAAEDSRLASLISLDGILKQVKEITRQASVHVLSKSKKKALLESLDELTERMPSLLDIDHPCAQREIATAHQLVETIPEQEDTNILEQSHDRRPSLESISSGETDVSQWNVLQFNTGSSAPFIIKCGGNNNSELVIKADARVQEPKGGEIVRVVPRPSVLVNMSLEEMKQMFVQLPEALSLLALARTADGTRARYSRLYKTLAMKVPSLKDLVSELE

[2] = molecular target: Phototropin2 (Phot2), transiently expressed in N. benthamiana leaves (Arabidopsis thaliana) (UniProt P93025)
[3] = molecular target: T2, PMI1 fused with YFP (PMI1:YFP) (Arabidopsis thaliana) (UniProt Q9C8E6)
T2 sequence: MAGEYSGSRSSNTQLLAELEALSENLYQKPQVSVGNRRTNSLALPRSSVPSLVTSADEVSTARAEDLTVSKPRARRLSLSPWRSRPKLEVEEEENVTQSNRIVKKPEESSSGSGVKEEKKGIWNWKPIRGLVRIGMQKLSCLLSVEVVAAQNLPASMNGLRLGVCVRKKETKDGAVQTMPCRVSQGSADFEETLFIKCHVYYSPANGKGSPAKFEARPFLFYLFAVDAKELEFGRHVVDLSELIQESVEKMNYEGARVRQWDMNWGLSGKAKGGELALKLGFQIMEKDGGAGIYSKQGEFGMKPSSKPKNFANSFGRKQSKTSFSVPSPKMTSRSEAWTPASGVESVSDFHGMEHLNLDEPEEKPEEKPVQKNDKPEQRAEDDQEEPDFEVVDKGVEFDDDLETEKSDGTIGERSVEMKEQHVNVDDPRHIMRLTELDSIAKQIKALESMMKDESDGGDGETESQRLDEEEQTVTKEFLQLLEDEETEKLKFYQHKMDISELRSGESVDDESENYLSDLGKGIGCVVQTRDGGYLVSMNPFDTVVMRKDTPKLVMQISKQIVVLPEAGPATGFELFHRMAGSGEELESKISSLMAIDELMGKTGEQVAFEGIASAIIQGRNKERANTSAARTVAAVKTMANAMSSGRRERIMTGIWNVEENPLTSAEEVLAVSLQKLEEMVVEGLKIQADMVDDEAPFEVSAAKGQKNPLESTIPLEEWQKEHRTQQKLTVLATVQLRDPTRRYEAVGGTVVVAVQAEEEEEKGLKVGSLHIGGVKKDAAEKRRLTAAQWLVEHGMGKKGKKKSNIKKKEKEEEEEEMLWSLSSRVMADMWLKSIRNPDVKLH

binding [1]	binding [2]	binding [3]	Substance
binds	no binding	binds	14-3-3 OMEGA with HA tag (OMEGA:HA) (from UniProt Q01525 1-259)
	no binding		14-3-3 LAMBDA, expressed in N. benthamiana leaves (tag not stated) (from UniProt P48349 1-248)
binds	no binding	binds	14-3-3 KAPPA with HA tag (KAPPA:HA) (from UniProt P48348 1-248)
	no binding		14-3-3 CHI, expressed in N. benthamiana leaves (tag not stated) (from UniProt P42643 1-267)
